According to the supplement of paper PMC12217912:
Some of the results follow. The full chains were built here from the parent and the listed change. Inactive controls read about 0.05.

B1: TEV protease; numbered along this chain (parent)
chain: MGESLFKGPRDYNPISSSICHLTNESDGHTTSLYGIGFGPFIITNKHLFRRNNGTLVVQSLHGVFKVKDTTTLQQHLVDGRDMIIIRMPKDFPPFPQKLKFREPQREERICLVTTNFQTKSMSSMVSDTSCTFPSGDGIFWKHWIQTKDGQCGSPLVSTRDGFIVGIHSASNFTNTNNYFTSVPKNFMELLTNQEAQQWVSGWRLNADSVLWGGHKVFMVKPEEPFQPVKEATQL

Variants of: B1
Assay: raw area under fraction-flipped curve 0-4 h after induction (AUC4h, not background-subtracted), DNA-recorder readout of cleavage of the substrate (dimensionless); higher = more cleavage of the substrate by the protease variant
Conditions: temperature: 34 °C; time window: 0-4 h after rhamnose induction
Description: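 In vivo DNA recorder in E. coli TOP10(DE3) ΔrhaA at 34 °C. Each TEVp single-site mutant (parent TEVp 0) is paired with a single-site variant of the 7-mer TEVs (canonical ENLYFQ|S). The substrate sits between flexible linkers in a Bxb1-sfGFP-TEVs-SsrA fusion, so cleavage stabilises Bxb1 and speeds flipping of a recombination array, read by NGS. The value is the raw area under the fraction-flipped curve over 0-4 h after rhamnose induction (AUC4h), with ≥20 reads per time point. It is not background-subtracted; inactive controls average about 0.047.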
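Note: Bxb1 expression induced with 0.2% (w/v) L-rhamnose at OD600 near 0.5, cultures sampled hourly, flipped fraction per protease–substrate barcode pair counted by paired-end Illumina sequencing.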

Variant | area with substrate EALYFQS | area with substrate EDLYFQS | area with substrate EELYFQS | area with substrate EGLYFQS | area with substrate EHLYFQS | area with substrate EILYFQS | area with substrate EKLYFQS | area with substrate ELLYFQS | area with substrate EMLYFQS | area with substrate EQLYFQS | area with substrate ERLYFQS | area with substrate ESLYFQS | area with substrate ETLYFQS | area with substrate EVLYFQS | area with substrate EWLYFQS | area with substrate EYLYFQS | area with substrate ECLYFQS | area with substrate EFLYFQS | area with substrate EPLYFQS
R10T | 0.126 | 0.16 | 0.121 | 0.0914 | 0.101 | 0.0935 | 0.117 | 0.108 | 0.111 | 0.108 | 0.105 | 0.0965 | – | – | – | – | – | – | –
R10Y | 0.0574 | 0.0863 | – | 0.0845 | 0.0634 | 0.0717 | 0.0936 | 0.0824 | 0.0899 | 0.0958 | 0.0756 | – | 0.0885 | 0.0844 | 0.0789 | 0.0854 | – | – | –
D11C | 0.112 | 0.139 | 0.13 | 0.11 | – | 0.0783 | 0.0933 | 0.112 | 0.103 | 0.135 | 0.0991 | 0.0935 | 0.0994 | 0.098 | – | – | – | – | –
I15T | 0.102 | – | – | 0.0971 | 0.0908 | 0.109 | 0.126 | 0.102 | 0.148 | 0.113 | 0.0985 | 0.109 | – | 0.0939 | 0.0871 | – | 0.105 | 0.0874 | –
S18H | 0.15 | – | 0.121 | – | – | – | 0.123 | 0.0825 | 0.116 | 0.131 | 0.105 | 0.0956 | – | 0.0791 | – | – | 0.102 | – | 0.12
I19A | 0.09 | 0.103 | 0.11 | 0.0894 | – | – | 0.0863 | – | – | 0.149 | 0.0831 | 0.0971 | 0.0933 | – | – | 0.0842 | – | 0.0826 | 0.112
L22Q | 0.0421 | 0.0377 | – | – | – | 0.0321 | – | 0.041 | 0.0557 | 0.0495 | 0.0364 | 0.0659 | – | 0.0363 | 0.0918 | 0.0476 | – | – | 0.0566
E25H | 0.145 | – | – | 0.104 | 0.102 | 0.112 | 0.105 | – | – | – | 0.103 | 0.114 | 0.0866 | 0.111 | 0.105 | – | 0.116 | – | 0.172
E25M | 0.138 | – | 0.129 | 0.102 | – | 0.0927 | 0.108 | 0.0718 | – | 0.0775 | 0.0985 | 0.112 | – | 0.109 | 0.035 | – | – | – | 0.118
S26Y | 0.0711 | 0.0942 | 0.085 | 0.0776 | – | 0.0779 | – | – | 0.105 | 0.0819 | 0.0831 | 0.0739 | – | 0.077 | 0.0794 | – | – | – | –
T30I | 0.164 | 0.139 | – | – | – | 0.0667 | 0.0701 | – | – | 0.127 | 0.114 | 0.108 | – | 0.132 | 0.101 | – | – | – | 0.0753
T30P | 0.0938 | – | – | 0.0815 | – | – | 0.109 | – | – | 0.11 | 0.0774 | 0.0886 | – | – | – | – | 0.0973 | – | 0.0777
Y34A | 0.145 | 0.0871 | – | 0.0603 | – | 0.0941 | 0.0878 | 0.0669 | – | – | 0.0551 | 0.114 | – | – | 0.0784 | – | – | – | –
Y34S | 0.0902 | 0.136 | 0.0913 | 0.102 | 0.154 | 0.0797 | 0.0465 | 0.0829 | – | 0.0942 | 0.0957 | 0.0907 | – | 0.0759 | 0.0849 | – | – | – | –
I36K | 0.028 | – | 0.0426 | – | – | 0.0739 | 0.0479 | – | – | – | 0.0662 | 0.0451 | – | – | 0.0428 | – | 0.0377 | – | –
G37Y | 0.0623 | – | – | – | – | 0 | 0.0708 | 0.0501 | 0.0724 | – | 0.0707 | 0.0609 | 0.0591 | – | 0.0661 | 0.0783 | 0.0643 | – | 0.0728
F38Q | 0.112 | 0.101 | – | 0.0437 | 0.1 | 0.0811 | 0.109 | 0.0899 | 0.108 | 0.115 | 0.11 | 0.107 | 0.11 | 0.0861 | 0.0864 | – | – | 0.105 | 0.128
F41H | 0.103 | – | – | 0.0785 | 0.092 | 0.0761 | – | – | 0.103 | 0.0901 | – | 0.105 | 0.1 | 0.0887 | 0.0943 | 0.0882 | – | 0.144 | –
I42K | 0.0529 | – | – | 0.0504 | 0.0484 | 0.0497 | 0.0316 | 0.0533 | 0.0498 | 0.046 | 0.0522 | 0.0441 | 0.0507 | 0.0514 | 0.0387 | 0.0374 | 0.0492 | 0.0384 | 0.0394
I43Y | 0.0562 | – | 0.0564 | – | – | 0.0494 | 0.06 | 0.0413 | 0.0529 | 0.0496 | 0.0437 | 0.0552 | 0.054 | – | 0.056 | 0.038 | 0.0359 | – | –
H47Q | 0.0552 | 0.0535 | 0.0521 | 0.0816 | – | 0.0466 | 0.0613 | – | 0.0554 | 0.0672 | – | 0.0609 | 0.0609 | 0.0514 | 0.0651 | – | – | – | 0.0656
F49W | 0.0926 | – | 0.111 | – | – | 0.1 | 0.117 | 0.082 | 0.093 | 0.103 | 0.0773 | 0.0961 | – | 0.0951 | 0.0819 | – | 0.0886 | – | 0.1
R50I | 0.151 | – | – | 0.099 | 0.135 | 0.107 | 0.144 | 0.123 | – | 0.133 | – | 0.139 | – | 0.102 | – | 0.109 | 0.139 | – | –
R51P | 0.071 | 0.0936 | 0.0841 | – | 0.0514 | – | 0.0655 | 0.0664 | – | 0.0699 | 0.0812 | 0.0847 | 0.0779 | 0.0592 | – | – | – | 0.0844 | 0.0943
R51W | 0.098 | – | – | 0.0885 | 0.132 | 0.0928 | – | 0.124 | – | 0.168 | 0.107 | 0.107 | – | – | 0.126 | – | – | 0.0663 | –
R51Y | 0.139 | 0.15 | 0.124 | 0.064 | – | 0.117 | 0.099 | – | – | 0.143 | – | 0.126 | 0.142 | 0.107 | – | – | – | 0.133 | 0.124
T55D | 0.105 | – | 0.106 | – | – | 0.0722 | – | – | 0.109 | 0.0996 | – | 0.101 | – | 0.0703 | 0.0721 | – | – | – | 0.0943
T55L | 0.0853 | 0.117 | – | – | – | 0.0825 | – | 0.0935 | 0.0956 | 0.0643 | 0.104 | 0.0966 | – | 0.0774 | – | 0.09 | – | 0.0931 | –
V58H | 0.0596 | – | – | – | – | 0.0321 | 0.06 | – | – | 0.0693 | 0.0529 | 0.0424 | 0.0601 | – | 0.0425 | – | – | – | –
